Measured values as given in PubChem BioAssay (NCI).
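Step 1: Grow cells in 96-well plates. Step 2: Expose to compound for 48 hours at 5 concentrations. Step 3: Interpolate endpoints linearly; if unreached, use highest concentration. GI50: concentration for 50% inhibition of growth. At the TGI there is no net growth.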

Tested on: NCI-H322M lung
Experiment: NCI tumour cell line growth inhibition, 48 h

Row | SMILES | GI50 [µM] | TGI [µM]
1 | CCC(C)S(=O)(=O)c1oc(-c2ccc(C)cc2)nc1S(=O)(=O)c1ccccc1 (configuration not stated) | 12.3 | 24.7
2 | CN1CCN(c2ccc(Nc3nc(N4CCN(S(=O)(=O)c5ccc(Cl)cc5)CC4)c4sccc4n3)cc2)CC1 | 12.7 | 29.8
3 | O=C(Nc1nc2ccc([N+](=O)[O-])cc2s1)Nc1ccccc1I | 3.19 | 33.9
4 | Cc1cc(N=C2NC(=O)/C(=C/c3cc(C(C)(C)C)c(O)c(C(C)(C)C)c3)S2)n[nH]1 | 3.49 | 21.8
5 | COc1ccc(-c2cc(-c3cc(C(C)C)c(O)cc3C)nn2-c2ccc(S(N)(=O)=O)cc2)cc1 | 12.5 | 25.1
6 | C=C1CC[C@@H]2[C@]3(C)COC(c4cn[nH]c4-c4ccc(Br)cc4)O[C@@H]3CC[C@@]2(C)[C@@H]1C/C=C1/C(=O)OCC1O (some centres not stated) | 12.5 | 25.6
